Results reported in US11041000B2, “Peptide inhibitors of interleukin-23 receptor and their use to treat inflammatory diseases” (priority 2019, dated 2021).
At least one peptide structure holds a part that was inferred or is arguable (an end, a ring closure or a residue). Numbered stars: 1 amine (or outer) side, 2 acyl side, 3 side chain; on linkers, the order of the positions; unused ones are H or OH. Bridge positions count the residues as written; N and C are the ends. Square brackets hold non-standard residues; d marks the D form. Peptide text beside a SMILES is read from it. Trp(7-Me) = Cc1cccc2c(C[C@H](N)C(=O)O)c[nH]c12; Abu(4-yl) = O=C([C@H](CC[*:3])N[*:1])[*:2]; 2Nal = N[C@@H](Cc1ccc2ccccc2c1)C(=O)O; AEF = NCCOc1ccc(C[C@H](N)C(=O)O)cc1; αMeK = C[C@](N)(CCCCN)C(=O)O

Tests used:
[1] = molecular target: IL-23R-expressing DB cells (Homo sapiens, UniProt Q5VWK5); assay: DB cells IL23R pSTAT3 cell assay (pStat3HTRF); format: cell-based; conditions: DB cells stimulated with IL-23 0.5 nM, 30 minutes, phospho-STAT3 in cell lysates; read-out: pStat3 HTRF
Sequence of IL-23R-expressing DB cells (Q5VWK5 24-629 limits assumed): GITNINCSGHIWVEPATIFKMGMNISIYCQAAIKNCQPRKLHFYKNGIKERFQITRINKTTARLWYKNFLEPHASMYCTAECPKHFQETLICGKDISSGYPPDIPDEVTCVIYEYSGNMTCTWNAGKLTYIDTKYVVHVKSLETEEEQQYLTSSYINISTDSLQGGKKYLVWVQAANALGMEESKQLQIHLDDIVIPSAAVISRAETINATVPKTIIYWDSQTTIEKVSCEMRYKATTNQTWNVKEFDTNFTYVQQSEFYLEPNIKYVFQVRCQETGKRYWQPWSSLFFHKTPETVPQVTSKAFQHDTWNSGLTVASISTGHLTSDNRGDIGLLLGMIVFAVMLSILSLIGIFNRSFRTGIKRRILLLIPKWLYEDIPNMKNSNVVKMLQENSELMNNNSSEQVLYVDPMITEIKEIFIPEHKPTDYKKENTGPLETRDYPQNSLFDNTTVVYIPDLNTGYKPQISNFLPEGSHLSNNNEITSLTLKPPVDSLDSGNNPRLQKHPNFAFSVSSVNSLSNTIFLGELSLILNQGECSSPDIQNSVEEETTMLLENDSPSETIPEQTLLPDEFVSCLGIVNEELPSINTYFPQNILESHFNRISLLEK

[2] = tested on: Natural killer (NK) cells; assay: NK cell based assay (IL-23-induced IFNγ); conditions: primary human NK cells, IL-23 plus IL-18 10 ng/mL, IFNγ in supernatant after 20 to 24 hours

SMILES	IC50 [1] [nM]	IC50 [2] [nM]
CC(=O)NCCCC[C@@H]1NC(=O)[C@H](Cc2c[nH]c3c(C)cccc23)NC(=O)[C@H]([C@@H](C)O)NC(=O)[C@H](CC(N)=O)NC(=O)[C@@H](NC(C)=O)C(C)(C)SSC(C)(C)[C@@H](C(=O)N[C@@H](Cc2ccc(OCCN)cc2)C(=O)N[C@@H](Cc2ccc3ccccc3c2)C(=O)N[C@@](C)(CCCCN)C(=O)N[C@@H](CCCCNC(C)=O)C(=O)N[C@@H](CC(N)=O)C(=O)NCCC(N)=O)NC1=O [compound 242]	0.641	2.37
CC(=O)NCCCC[C@@H]1NC(=O)[C@H](Cc2c[nH]c3c(C)cccc23)NC(=O)[C@H]([C@@H](C)O)NC(=O)[C@H](CC(N)=O)NC(=O)[C@@H](NC(C)=O)C(C)(C)SSC(C)(C)[C@@H](C(=O)N[C@@H](Cc2ccc(OCCN)cc2)C(=O)N[C@@H](Cc2ccc3ccccc3c2)C(=O)N[C@@](C)(CCCCN)C(=O)N[C@@H](CCCCNC(C)=O)C(=O)N[C@@H](CO)C(=O)N[C@H](CCCCN)C(N)=O)NC1=O [compound 352]	0.927	3.5
CC(=O)NCCCC[C@H](NC(=O)[C@](C)(CC(C)C)NC(=O)[C@H](Cc1ccc2ccccc2c1)NC(=O)[C@H](Cc1ccc(OCCN)cc1)NC(=O)[C@H]1NC(=O)[C@H](CCC(N)=O)NC(=O)[C@H](Cc2c[nH]c3c(C)cccc23)NC(=O)[C@H]([C@@H](C)O)NC(=O)[C@H](CC(N)=O)NC(=O)[C@@H](NC(C)=O)C(C)(C)SSC1(C)C)C(=O)NCC(=O)NCCC(N)=O [compound 205]	4.46	16.6
CC(=O)NCCCC[C@H](NC(=O)[C@](C)(CC(C)C)NC(=O)[C@H](Cc1ccc2ccccc2c1)NC(=O)[C@H](Cc1ccc(OCCN)cc1)NC(=O)[C@H]1NC(=O)[C@H](CCC(N)=O)NC(=O)[C@H](Cc2c[nH]c3c(C)cccc23)NC(=O)[C@H]([C@@H](C)O)NC(=O)[C@H](CC(N)=O)NC(=O)[C@@H](NC(C)=O)C(C)(C)SSC1(C)C)C(=O)N[C@H](Cc1ccccc1)C(=O)NCCC(N)=O [compound 213]	35.5	60
CC(=O)NCCCC[C@@H]1NC(=O)[C@H](Cc2c[nH]c3c(C)cccc23)NC(=O)[C@H]([C@@H](C)O)NC(=O)[C@H](CCC(N)=O)NC(=O)[C@@H](NC(=O)[C@@H](CCCNC(=N)N)NC(C)=O)CCSC[C@@H](C(=O)N[C@@H](Cc2ccc(OCCN)cc2)C(=O)N[C@@H](Cc2ccc3ccccc3c2)C(=O)N[C@@](C)(CCCCN)C(=O)N[C@@H](CCCCNC(C)=O)C(=O)N[C@@H](CC(N)=O)C(=O)N[C@H](CCCCN)C(N)=O)NC1=O [compound 324] (Ac-[dR][Abu(4-yl)]QT[Trp(7-Me)]K(Ac)C[AEF][2Nal][αMeK]K(Ac)N[dK]-NH2; thioether 2-7)	27	9.35
CC(=O)N[C@H](CCCNC(=N)N)C(=O)N[C@H]1CCSC[C@@H](C(=O)N[C@@H](Cc2ccc(OCCN)cc2)C(=O)N[C@@H](Cc2ccc3ccccc3c2)C(=O)NC2(C(=O)N[C@@H](CCC(=O)O)C(=O)N[C@@H](CC(N)=O)C(=O)NCCC(N)=O)CCOCC2)NC(=O)[C@H](CCC(N)=O)NC(=O)[C@H](Cc2c[nH]c3c(C)cccc23)NC(=O)[C@H]([C@@H](C)O)NC(=O)[C@H](CCC(N)=O)NC1=O [compound 203]	1.84	2.3
